Some of the results follow. Single values are uncertain, as repeats are few or missing.
What was measured:
Experiment in all cases: cell count relative to DMSO control; melanoma cells; higher = more viable cells
Conditions in all cases: library dose: low library concentration; 72 h
MZ2-MEL = tested on: MZ2-MEL
MeWo = tested on: MeWo
RPMI7951 = tested on: RPMI7951
RVH-421 = tested on: RVH-421
SkMel28 = tested on: SkMel28
SkMel2 = tested on: SkMel2
SkMel30 = tested on: SkMel30
SkMel5 = tested on: SkMel5
UACC257 = tested on: UACC257
UACC62 = tested on: UACC62
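Note: cell number obtained by counting DAPI-stained nuclei in high-throughput microscope images with image analysis software, screen run in 1,536-well plates.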

SMILES | cell count (MZ2-MEL) | cell count (MeWo) | cell count (RPMI7951) | cell count (RVH-421) | cell count (SkMel28) | cell count (SkMel2) | cell count (SkMel30) | cell count (SkMel5) | cell count (UACC257) | cell count (UACC62)
Clc1ccc(Nc2nnc(Cc3ccncc3)c3ccccc23)cc1 [vatalanib] + COc1cc(N2CCC(N3CCN(C)CC3)CC2)ccc1Nc1ncc(Cl)c(Nc2ccccc2S(=O)(=O)C(C)C)n1 [NVP-TAE684] (first compound 2 µM, partner dose 0.08 µM) | 101% | 67.3% | 101% | 93% | 82.3% | 107% | 92.6% | 95.5% | 80.2% | 86.5%
OCc1c[nH]c2ccccc12 [Indole-3-carbinol] + CC(C)CCN1c2nc(Nc3cc(F)c(O)c(F)c3)ncc2N(C)C(=O)C1C [BID1870] (first compound 0.8 µM, partner dose 0.2 µM) | 95.1% | 89.9% | 89.9% | 94.4% | 82.9% | 95.8% | 90% | 98.5% | 82.5% | 86.9%
OCc1c[nH]c2ccccc12 [Indole-3-carbinol] + C[C@@H]1CCN(C(=O)CC#N)C[C@@H]1N(C)c1ncnc2[nH]ccc12 [CP690550] (first compound 0.8 µM, partner dose 1 µM) | 102% | 103% | 108% | 101% | 102% | 89.3% | 113% | 95.6% | 99.1% | 102%
O=C(CCCCCCC(=O)Nc1ccccc1)NO [vorinostat] + CC(C)(C)c1cnc(CSc2cnc(NC(=O)C3CCNCC3)s2)o1 [SNS-032] (first compound 0.08 µM, partner dose 0.01 µM) | 109% | 94.2% | 89% | 99.8% | 82.8% | 90.7% | 105% | 102% | 91.3% | 98.5%
Clc1ccc(Nc2nnc(Cc3ccncc3)c3ccccc23)cc1 [vatalanib] + COC(=O)c1sccc1S(=O)(=O)Nc1ccc(Nc2ccccc2)cc1OC [GSK0660] (first compound 2 µM, partner dose 1 µM) | 91.7% | 95.4% | 103% | 83.5% | 76% | 98.9% | 109% | 79.3% | 77.6% | 95.8%
COCC[n+]1c2c(n(Cc3cnccn3)c1C)C(=O)c1ccccc1C2=O + C[C@@H]1CCN(C(=O)CC#N)C[C@@H]1N(C)c1ncnc2[nH]ccc12 [CP690550] (first compound 0.0004 µM, partner dose 1 µM) | 45.5% | 89.8% | 77.7% | 79.6% | 86.9% | 93.3% | 1.13% | 63.9% | 68.5% | 101%
Clc1ccc(Nc2nnc(Cc3ccncc3)c3ccccc23)cc1 [vatalanib] + CC1(C)NC(=O)N(c2ccc([N+](=O)[O-])c(C(F)(F)F)c2)C1=O [nilutamide] (first compound 2 µM, partner dose 1 µM) | 97.8% | 94.1% | 87.3% | 78.4% | 88.8% | 95.2% | 106% | 73.5% | 82.8% | 96.1%
Cn1c(Nc2ccc(C(F)(F)F)cc2)nc2cc(Oc3ccnc(-c4ncc(C(F)(F)F)[nH]4)c3)ccc21 + COc1cc2c(Oc3ccc4[nH]c(C)cc4c3F)ncnc2cc1OCCCN1CCCC1 [cediranib] (first compound 0.08 µM, partner dose 0.4 µM) | 70.7% | 68.8% | 57.9% | 82.3% | 66.9% | 80% | 55.8% | 69.9% | 46.1% | 49%
O=C(CCCCCCC(=O)Nc1ccccc1)NO [vorinostat] + CO[C@@H]1[C@H](N(C)C(=O)c2ccccc2)C[C@H]2O[C@]1(C)n1c3ccccc3c3c4c(c5c6ccccc6n2c5c31)C(=O)NC4 [Midostaurin] (first compound 0.08 µM, partner dose 0.08 µM) | 92.2% | 74.4% | 76.7% | 91.3% | 73.3% | 77% | 106% | 70.2% | 78.3% | 92.5%
OCc1c[nH]c2ccccc12 [Indole-3-carbinol] + COc1ccc(COc2ccc(Cc3cnc(N)nc3N)cc2OC)cc1 [GW2580] (first compound 0.8 µM, partner dose 1 µM) | 95.5% | 103% | 99.4% | 91.2% | 106% | 97.1% | 101% | 98.9% | 112% | 112%
OCc1c[nH]c2ccccc12 [Indole-3-carbinol] + Oc1cc(-c2nc(-c3ccccc3)[nH]c2-c2ccncc2)ccc1Cl [L779450] (first compound 0.8 µM, partner dose 0.2 µM) | 71.4% | 112% | 93% | 81.5% | 82.4% | 104% | 87% | 95.7% | 75.7% | 85.5%
OCc1c[nH]c2ccccc12 [Indole-3-carbinol] + COc1ccc(-c2ccc3c(N4CCOCC4)nc(N4C[C@@H](C)O[C@@H](C)C4)nc3n2)cc1CO [KU0063794] (first compound 0.8 µM, partner dose 0.02 µM) | 92.6% | 102% | 91% | 79% | 106% | 97.9% | 90.3% | 95.1% | 97.6% | 107%

— the supplement of paper PMC4604168 (melanoma cell lines)
